± gives the standard deviation. This is a selection; strong and weak results do not stand in their true shares.
System: MIWI (PIWIL1) piRISC loaded with L1MC piRNA (30 nt)
Test: pre-steady-state target cleavage rate (min^-1); MIWI and MILI are mouse PIWI proteins and EfPiwi is from a freshwater sponge; tags in brackets are library labels; higher = faster piRNA-guided slicing of the target
Settings: guide: L1MC piRNA 5'p-UAACUAAAUACUAUGCAAGCUGUAGGUCCU
Procedure, shortened: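 A transcribed, DNA-blocked target RNA library […] was incubated at 33 °C for 0–8 or 0–960 min with 1 nM active affinity-purified piRISC carrying one synthetic guide, in HEPES–potassium acetate buffer with or without 500 nM GTSF1 partner protein. Uncleaved targets were then sequenced and normalised to depth and to weakly complementary targets. Data from three trials were pooled, with k3 capped at 0.0001 min^-1, and a burst-and-steady-state fit yielded the pre-steady-state cleavage rate.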

[1] = auxiliary factor: 500 nM mouse GTSF1
[2] = auxiliary factor: none (no GTSF1)
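Further: 1 nM active piRISC with 0.1 nM target library at 33 °C single turnover.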

Sequence | pre-steady-state target cleavage rate [1] | pre-steady-state target cleavage rate [2]
UCCACCUACAGGUUGCAUACUAUUUAGUUA | 0.319 ± 0.033 | 0.0189 ± 0.0029
AGGACCUACAGCUUGCAUAGUAAUUAGUUA | 0.971 ± 0.067 | 0.0373 ± 0.0098
UCCUCCUACAGCUUGCAUAGUUUUUAGUAA | 0.246 ± 0.027 | 0.0137 ± 0.0029
UCCUGGAACAGCAUGCAUAGUAAUUAGUUA | 0.576 ± 0.044 | 0.0117 ± 0.0047
UGGUCCUACAGCUAGCAUAGUAUUUAGUUA | 0.995 ± 0.03 | 0.0426 ± 0.009
UGGACGAACAGCUUGCAUAGUAUUUAGUAA | 0.859 ± 0.067 | 0.0613 ± 0.012
UCCUGGAUGUGCUUGCAUAGUAUUUAUUUA | 0.0715 ± 0.018 | 0.0169 ± 0.0037
UCCAGCUACAGCAUGCAUAGUAUUUAGUUA | 0.934 ± 0.046 | 0.0212 ± 0.0041
UCCUGCUACACGUUGCAUAGUAUUUAGUAA | 0.475 ± 0.038 | 0.00402 ± 0.0018
UCCUGGUACAGCAUGCAUAGUAUUAAGUUA | 0.473 ± 0.054 | 0.00723 ± 0.0037
UCCUGGUACAGCUUGCAAAGUAUUUACUUA | 0.161 ± 0.033 | 0.0201 ± 0.0047
UCCUGGAUGUGCUUGCAUACUAUUAAGUUA | 0.0149 ± 0.0067 | 0.00358 ± 0.0027
UCCUGGAUGUCCUUGCAUAUUAUUUAGUUA | 0.0546 ± 0.013 | 0.00824 ± 0.003
UCCUGGUACAGCUUGCAUAGUUAUUAGUUA | 0.115 ± 0.018 | 0.018 ± 0.0051
UCCUGGAUCAGCUUGCAUUGUAAUUAGUUA | 0.084 ± 0.0095 | 0.00899 ± 0.0041
UCCUGGAUGAGCUUGCAUACUAUUUAGAAA | 0.0176 ± 0.007 | 0.00369 ± 0.0034
UGGACCUACAGCAUGCAUAGUAUUAAGUUA | 0.892 ± 0.066 | 0.015 ± 0.0027
UCCUGCUACAGUUUGCAUAGUAUUUAGUUA | 1.13 ± 0.036 | 0.04 ± 0.006
UCCUGGAUCAGCUUGCAUACUAUUUAGAAA | 0.0617 ± 0.018 | 0.00418 ± 0.0036
UCCUGGAUGUGCUUAGCAUAGUAUUUAGUUA | 0.129 ± 0.013 | 0.00909 ± 0.0031
